These results are taken from PubChem BioAssay AID1159614 (National Center for Advancing Translational Sciences (NCATS), 2016).

In all, about 45,000 compounds went through this assay and about 65 (0.1%) were called active. The call rests on the fitted dose curve; in most records, active means well fitted activation curve with a large enough effect; inconclusive means small, poorly fitted or top-dose-only effect; inactive means no such curve, though single readings can be large or run the other way. The list shows a part of the results.

The experiment addresses Galactocerebrosidase (Homo sapiens) (UniProt P54803). As to the kind of experiment: A Novel Cell-Based Assay to Identify Small Molecules for B -Galactocerebrosidase. Further: 0% is about no effect; nearly all actives have a fitted effect of over 65% in size. As to conditions: 145M-Twi-hGALC-G270D cells (Twitcher mouse brain line with human GALC G270D), HMU-beta-Gal fluorescence, 48 h; series mostly up to 57.5 µM; activation: at the top concentration. Summed up: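 Mutant human GALC (G270D), stably expressed in a Twitcher mouse brain cell line lacking endogenous GALC, is measured in live-treated cells via 6-hexadecanoylamino-4-methylumbelliferyl-β-galactoside hydrolysis (0.1 mM final, pH 5.2) with fluorescent detection.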
UniProt P54803, sequence (P54803 whole entry, looked up): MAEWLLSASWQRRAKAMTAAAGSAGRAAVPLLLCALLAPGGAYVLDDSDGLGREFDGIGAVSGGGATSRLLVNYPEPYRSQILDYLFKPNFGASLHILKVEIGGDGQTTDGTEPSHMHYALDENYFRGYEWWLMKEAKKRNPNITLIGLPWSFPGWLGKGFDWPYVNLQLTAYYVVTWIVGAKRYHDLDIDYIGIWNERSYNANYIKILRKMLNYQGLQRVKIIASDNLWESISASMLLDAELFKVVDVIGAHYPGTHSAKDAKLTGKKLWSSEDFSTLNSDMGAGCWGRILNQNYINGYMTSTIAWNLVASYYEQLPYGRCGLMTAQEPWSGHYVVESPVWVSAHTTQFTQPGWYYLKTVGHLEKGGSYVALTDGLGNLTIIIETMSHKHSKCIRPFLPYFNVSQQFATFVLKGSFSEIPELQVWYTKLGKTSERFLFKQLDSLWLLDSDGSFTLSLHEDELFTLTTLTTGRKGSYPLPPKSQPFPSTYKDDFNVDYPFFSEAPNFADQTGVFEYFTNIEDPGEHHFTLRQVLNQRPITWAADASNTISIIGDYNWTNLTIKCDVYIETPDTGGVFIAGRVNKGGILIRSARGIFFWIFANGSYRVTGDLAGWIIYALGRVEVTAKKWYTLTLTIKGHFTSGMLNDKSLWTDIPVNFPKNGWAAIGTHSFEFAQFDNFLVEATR
As for `NC(N)=NC(=O)Cc1c(Cl)cccc1Cl`, the “activation” value was inactive: -13.8%.
To `COC(=O)C1=C(c2ccccc2)c2ccccc2S(=O)(=O)N1CC(=O)Nc1cccc(C(C)=O)c1` belongs inactive: -2.45%; to `Cc1ccc(CCNC(=O)c2ccc(NC(=O)N3CC(C)Sc4ccccc43)cc2)cc1` (stereo unspecified), inactive: -14.6%; to `COc1ccc(-n2nc(C(=O)N(C)c3cccc(C(F)(F)F)c3)c3c4ccccc4n(C)c3c2=O)cc1`, inactive: -16.6%.
Under `COc1cccc(CNC(=O)CCn2c(=O)c3cccn3c3ccc(F)cc32)c1OC` stands inactive: 3.61%; under `CCn1nnc2cc(C(=O)Nc3cccc(Cl)c3)ccc21`, inactive: -10.4%.
On to `Cc1nc2nc(NC(=O)c3cccc(Cl)c3)[nH]n2c(=O)c1Cc1ccccc1`, for which the “activation” value was inactive: -26.8%.
To `CCCNC(=O)C1CCC(Cn2c(=O)c3sccc3n(Cc3cccc(OC)c3)c2=O)CC1` (stereo unspecified) belongs inactive: -11.5%; to `CCC(C(=O)N1CCN(c2cccc(C)c2C)CC1)n1nc(C)c2sc3ccccc3c2c1=O` (stereo unspecified), inactive: -13%; to `O=S(=O)(c1ccc(Br)cc1)c1nc(-c2ccco2)oc1SCc1ccccc1Cl`, inactive: -6.88%.
In the case of `CCCCOc1ccc(CNC(=O)CN2CCSc3ccccc32)cc1`, the “activation” value was inactive: 9.3%.
`Cc1ccc(CCNC(=O)c2nn(C)c3c2CSc2ccccc2-3)cc1`: the “activation” value was inactive: 5.32%.
To `CCOC(=O)c1c(S(=O)(=O)N2CCC(C(=O)Nc3ccccc3OC)CC2)c(C)n(CC)c1C` belongs inactive: -11.2%; to `COc1ccc(CCNC(=O)Cn2cc(C(=O)c3ccccc3)c(=O)c3ccc(C)nc32)cc1OC`, inactive: -15.2%; to `CCOc1ccc(-n2c(-c3ccc(C)cc3)nc3c(cnn3-c3ccccc3)c2=O)cc1`, inactive: -1.88%.
To `CCOC(=O)C1CCC(CN(Cc2ccccc2)S(=O)(=O)c2ccc(Cl)cc2)CC1` (stereo unspecified) belongs inactive: -9.12%.
Regarding `COc1ccc(CCNC(=O)CCc2c(C)nc3c(c(C)nn3-c3ccc(C)c(C)c3)c2C)c(OC)c1OC`, the “activation” value was inactive: -2.98%.
Under `Cc1ccc(NC(=O)CCn2c(=O)c3cccn3c3ccccc32)c(Cl)c1` stands inactive: 5.03%; under `CCCCN(CCCC)CCNC(=O)c1cn(C)c2ccc(S(=O)(=O)N3CCOCC3)cc2c1=O`, inactive: -14.3%; under `Cc1c(Cl)cccc1NS(=O)(=O)c1ccc2[nH]cc(C(=O)NC3CCCC3)c(=O)c2c1`, inactive: -4.74%.
Turning to `Cc1ccc2c(c1)c1c(c(=O)n(-c3ccccc3)c(=O)n1CC(=O)N1CCCC1)n2C`, the “activation” value is inactive: -7.89%.
To `CCOc1ccc(OCC)c(Nc2nc3ccccc3c3nnc(C)n23)c1` belongs inactive: -9.79%.
Consider `COc1cccc(N2CC(NC(=O)Cc3cccs3)CC2=O)c1` (stereo unspecified), for which the “activation” value was inactive: -6.82%.
To `Cc1ccccc1C(=O)Nc1ccccc1C(=O)OCc1cc(=O)n2ccsc2n1` belongs inactive: -17%; to `CN1C(=O)CC(=O)N(C)c2cc(S(=O)(=O)N(C)Cc3ccccc3)ccc21`, inactive: -14%.
To `Cc1cc(C)c(Cn2c3ccccc3c3cnn(CC(=O)N4CCCCC4)c(=O)c32)c(C)c1` belongs inactive: -5.81%; to `CCn1cc(C(=O)NCCc2ccc(C)cc2)c(=O)c2cc(S(=O)(=O)N(C)C)ccc21`, inactive: -7.51%; to `COc1ccc2c(c1)c1c(c(=O)n(-c3ccc(OC)c(OC)c3)c(=O)n1Cc1ccccc1C)n2C`, inactive: -21%.
Under `Cc1ccc(S(=O)(=O)c2nc(-c3cccs3)oc2N2CCCCC2)cc1` stands inactive: -20%; under `Cc1ccc(-n2ncc(C(=O)NCCN3CCN(C)CC3)c2C2CCN(C(=O)OC(C)(C)C)CC2)c(C)c1`, inactive: -22.8%.
Consider `CC(=O)c1cccc(NS(=O)(=O)c2ccc3[nH]c4c(c3c2)CCCCCC4)c1`, for which the “activation” value was inactive: -17.1%.
To `O=C(c1noc2c1CCCCC2)N1CCN(c2ccc(Cl)cc2)CC1` belongs inactive: -12.5%; to `COc1ccccc1NC(=O)Cn1c(=O)n(Cc2ccc3c(c2)OCO3)c(=O)c2oc3ccccc3c21`, inactive: -2.51%; to `CCc1ccc(-c2cn3c(n2)sc2cc(C(=O)NCCc4ccc(OC)cc4OC)ccc23)cc1`, inactive: -15.6%.
Under `COc1ccc(OC)c(S(=O)(=O)Nc2cc3c(cc2C)n(C)c(=O)c(=O)n3C)c1` stands inactive: -14.2%.
Under `CN(Cc1ccccc1)C(=O)CN1C(=O)CSc2ccc(S(=O)(=O)N3CCOCC3)cc21` stands inactive: -16.2%.
For `COc1ccc(NC(=O)CCS(=O)(=O)c2nc(-c3cccs3)cc(C(F)(F)F)n2)cc1OC`, the “activation” value was inactive: -16.7%.
Under `Cc1ccc(NC(=O)CN(c2ccccc2)S(=O)(=O)N(C)C)cc1Cl` stands inactive: -18.5%; under `Cc1ccc(NC(=O)NCc2ccc3c(c2)CCN3C(=O)c2ccccc2)c(Cl)c1`, inactive: 7.93%.
On to `C#CC(C)(C)NS(=O)(=O)c1cc(-c2nnc(Nc3ccc(C)cc3)c3ccccc23)ccc1C`, for which the “activation” value is inactive: -9.14%.
Under `Cc1ccc(NC(=O)c2nn(C)c3c2CS(=O)(=O)c2ccccc2-3)c(Cl)c1` stands inactive: -7.83%; under `NS(=O)(=O)c1ccc(CCNC(=O)CCCCCn2c(=O)[nH]c3ccccc3c2=O)cc1`, inactive: -10.4%; under `COc1ccc(NC(=O)c2cn(CC(C)C)c(=O)c3cc(OC)c(OC)cc23)cc1Cl`, inactive: -0.607%.
As for `CCc1cccc(NC(=O)CSc2ncc3c(n2)-c2ccc(Cl)cc2N(Cc2ccccc2)S3(=O)=O)c1`, the “activation” value is inactive: 0.009%.
To `COc1cccc(C(=O)NC2(C(F)(F)F)C(=O)Nc3c2c(=O)[nH]c(=O)n3-c2ccc(C)cc2)c1` (stereo unspecified) belongs inactive: -11%; to `CCc1c(C)sc2c1CCN(C(=O)Nc1cc(OC)c(OC)c(OC)c1)C2c1ccccc1` (stereo unspecified), inactive: -12.5%.
